According to the supplement of paper PMC8728848:
The other results are listed elsewhere or left out.

Tests used:
Assay in all cases: glycan array binding signal (z-score within array); higher = stronger binding
Settings in all cases: glycan notation: IUPAC condensed, linker removed
[1] = molecular target: Fuc(a1-2)Gal(b1-4)[Fuc(a1-3)]GlcNAc
In short: (§1)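 The Consortium for Functional Glycomics database supplied 3228 glycan arrays, of which those lacking an available protein sequence were dropped. The binding signal, a within-array Z-score, was averaged across arrays of the same protein sequence and across linkers. Negative scores can be read as non-binding.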

[2] = molecular target: Fuc(a1-2)Gal(b1-4)[Fuc(a1-3)]GlcNAc(b1-2)Man(a1-3)[Fuc(a1-2)Gal(b1-4)[Fuc(a1-3)]GlcNAc(b1-2)Man(a1-6)]Man(b1-4)GlcNAc(b1-4)[Fuc(a1-6)]GlcNAc
In short: as §1

[3] = molecular target: Fuc(a1-2)Gal(b1-4)[Fuc(a1-3)]GlcNAc(b1-2)[Fuc(a1-2)Gal(b1-4)[Fuc(a1-3)]GlcNAc(b1-4)]Man(a1-3)[Fuc(a1-2)Gal(b1-4)[Fuc(a1-3)]GlcNAc(b1-2)Man(a1-6)]Man(b1-4)GlcNAc(b1-4)GlcNAc
In short: as §1

[4] = molecular target: Fuc(a1-2)Gal(b1-4)[Fuc(a1-3)]GlcNAc(b1-3)Gal(b1-4)[Fuc(a1-3)]GlcNAc
In short: as §1

[5] = molecular target: Fuc(a1-2)Gal(b1-4)[Fuc(a1-3)]GlcNAc(b1-3)Gal(b1-4)[Fuc(a1-3)]GlcNAc(b1-3)Gal(b1-4)[Fuc(a1-3)]GlcNAc
In short: as §1

[6] = molecular target: Fuc(a1-2)Gal(b1-4)[Fuc(a1-3)]GlcNAc(b1-3)GalNAc
In short: as §1

[7] = molecular target: Fuc(a1-2)Gal(b1-4)[Fuc(a1-3)]GlcNAc(b1-3)[Neu5Ac(a2-6)Gal(b1-4)GlcNAc(b1-6)]Gal(b1-4)Glc
In short: as §1

[8] = molecular target: Fuc(a1-2)Gal3S(b1-4)GlcNAc
In short: as §1

[9] = molecular target: Fuc(a1-2)Gal6S(b1-3)GlcNAc
In short: as §1

[10] = molecular target: Fuc(a1-2)Gal6S(b1-3)GlcNAc6S
In short: as §1

Fuc(a1-2)Gal6S(b1-4)Glc = molecular target: Fuc(a1-2)Gal6S(b1-4)Glc
In short: as §1

[11] = molecular target: Fuc(a1-2)Gal6S(b1-4)Glc6S
In short: as §1

Fuc(a1-2)[Gal(a1-3)]Gal = molecular target: Fuc(a1-2)[Gal(a1-3)]Gal
In short: as §1

[12] = molecular target: Fuc(a1-2)[Gal(a1-3)]Gal(b1-3)GalNAc
In short: as §1

[13] = molecular target: Fuc(a1-2)[Gal(a1-3)]Gal(b1-3)GalNAc(b1-3)Gal(a1-4)Gal(b1-4)Glc
In short: as §1

[14] = molecular target: Fuc(a1-2)[Gal(a1-3)]Gal(b1-3)GlcNAc
In short: as §1

[15] = molecular target: Fuc(a1-2)[Gal(a1-3)]Gal(b1-3)GlcNAc(b1-2)Man(a1-3)[Fuc(a1-2)[Gal(a1-3)]Gal(b1-3)GlcNAc(b1-2)Man(a1-6)]Man(b1-4)GlcNAc(b1-4)GlcNAc
In short: as §1

[16] = molecular target: Fuc(a1-2)[Gal(a1-3)]Gal(b1-3)GlcNAc(b1-2)Man(a1-3)[Fuc(a1-2)[Gal(a1-3)]Gal(b1-3)GlcNAc(b1-2)Man(a1-6)]Man(b1-4)GlcNAc(b1-4)[Fuc(a1-6)]GlcNAc
In short: as §1

[17] = molecular target: Fuc(a1-2)[Gal(a1-3)]Gal(b1-3)GlcNAc(b1-3)GalNAc
In short: as §1

[18] = molecular target: Fuc(a1-2)[Gal(a1-3)]Gal(b1-3)GlcNAc(b1-6)GalNAc
In short: as §1

[19] = molecular target: Fuc(a1-2)[Gal(a1-3)]Gal(b1-4)Glc
In short: as §1

[20] = molecular target: Fuc(a1-2)[Gal(a1-3)]Gal(b1-4)GlcNAc
In short: as §1

[21] = molecular target: Fuc(a1-2)[Gal(a1-3)]Gal(b1-4)GlcNAc(b1-2)Man
In short: as §1

[22] = molecular target: Fuc(a1-2)[Gal(a1-3)]Gal(b1-4)GlcNAc(b1-2)Man(a1-3)[Fuc(a1-2)[Gal(a1-3)]Gal(b1-4)GlcNAc(b1-2)Man(a1-6)]Man(b1-4)GlcNAc(b1-4)GlcNAc
In short: as §1

[23] = molecular target: Fuc(a1-2)[Gal(a1-3)]Gal(b1-4)GlcNAc(b1-2)Man(a1-3)[Fuc(a1-2)[Gal(a1-3)]Gal(b1-4)GlcNAc(b1-2)Man(a1-6)]Man(b1-4)GlcNAc(b1-4)[Fuc(a1-6)]GlcNAc
In short: as §1

[24] = molecular target: Fuc(a1-2)[Gal(a1-3)]Gal(b1-4)GlcNAc(b1-3)GalNAc
In short: as §1

[25] = molecular target: Fuc(a1-2)[Gal(a1-3)]Gal(b1-4)GlcNAc(b1-3)[Fuc(a1-2)[Gal(a1-3)]Gal(b1-4)GlcNAc(b1-6)]GalNAc
In short: as §1

[26] = molecular target: Fuc(a1-2)[Gal(a1-3)]Gal(b1-4)GlcNAc(b1-6)GalNAc
In short: as §1

[27] = molecular target: Fuc(a1-2)[Gal(a1-3)]Gal(b1-4)[Fuc(a1-3)]Glc
In short: as §1

[28] = molecular target: Fuc(a1-2)[Gal(a1-3)]Gal(b1-4)[Fuc(a1-3)]GlcNAc
In short: as §1

[29] = molecular target: Fuc(a1-2)[Gal(a1-3)]Gal(b1-4)[Fuc(a1-3)]GlcNAc(b1-3)GalNAc
In short: as §1

[30] = molecular target: Fuc(a1-2)[Gal(a1-4)]Gal(b1-4)GlcNAc
In short: as §1

[31] = molecular target: Fuc(a1-2)[GalNAc(a1-3)]Gal
In short: as §1

[32] = molecular target: Fuc(a1-2)[GalNAc(a1-3)]Gal(b1-3)GalNAc(a1-3)[Fuc(a1-2)]Gal(b1-4)GlcNAc
In short: as §1

[33] = molecular target: Fuc(a1-2)[GalNAc(a1-3)]Gal(b1-3)GalNAc(b1-3)Gal(a1-4)Gal(b1-4)Glc
In short: as §1

[34] = molecular target: Fuc(a1-2)[GalNAc(a1-3)]Gal(b1-3)GlcNAc
In short: as §1

[35] = molecular target: Fuc(a1-2)[GalNAc(a1-3)]Gal(b1-3)GlcNAc(b1-2)Man(a1-3)[Fuc(a1-2)[GalNAc(a1-3)]Gal(b1-3)GlcNAc(b1-2)Man(a1-6)]Man(b1-4)GlcNAc(b1-4)GlcNAc
In short: as §1

[36] = molecular target: Fuc(a1-2)[GalNAc(a1-3)]Gal(b1-3)GlcNAc(b1-2)Man(a1-3)[Fuc(a1-2)[GalNAc(a1-3)]Gal(b1-3)GlcNAc(b1-2)Man(a1-6)]Man(b1-4)GlcNAc(b1-4)[Fuc(a1-6)]GlcNAc
In short: as §1

B1: Arath Fbox (Arabidopsis thaliana), NP_178341.1 (protein)
chain: EFTWGRKRRVKSESSPFDSFPEDCISYIISFTNPRDACVAATVSKTFESTVKSDIIWEKFLPADYESLIPPSRVFSSKKELYFSLCNDPVLFDDDKKSVWLEKASGKRCLMLSAMNLSIIWGDNPQYWQWIPIPESRFEKVAKLRDVCWFEIRGRTNTRVLSPRTRYSAYIVFKGVDKCYGFQNVAIEAAVGVVGQEPSRRLICFSEAIRRGRRNVVKPKQREDGWMEIELGEFFNDGGIMDNDEIEMSALETKQLNRKCGLIIQGIEIRPAKILAAAAASFLEQKLISEEDLNSAVDHHHHHH
Question: How did the “glycan array binding signal (z-score)” value [1] turn out when B1 was run?
Answer: The value was -0.563.

Question: And the “glycan array binding signal (z-score)” value [2]?
Answer: The value was -0.138.

Question: And the “glycan array binding signal (z-score)” value [3]?
Answer: The value was 0.048.

Question: And the “glycan array binding signal (z-score)” value [4]?
Answer: The value was -0.68.

Question: What about the “glycan array binding signal (z-score)” value [5] of the same binder?
Answer: Its value is -0.484.

Question: And the “glycan array binding signal (z-score)” value [6]?
Answer: The value was 0.864.

Question: What about the “glycan array binding signal (z-score)” value [7] of the same binder?
Answer: The value was -0.578.

Question: What about the “glycan array binding signal (z-score)” value [8] of the same binder?
Answer: The value was -0.505.

Question: And the “glycan array binding signal (z-score)” value [9]?
Answer: Its value is -0.733.

Question: And the “glycan array binding signal (z-score)” value [10]?
Answer: The value was 0.431.

Question: What about the “glycan array binding signal (z-score)” value (Fuc(a1-2)Gal6S(b1-4)Glc) of the same binder?
Answer: Its value is -0.186.

Question: And the “glycan array binding signal (z-score)” value [11]?
Answer: Its value is 0.627.

Question: What about the “glycan array binding signal (z-score)” value (Fuc(a1-2)[Gal(a1-3)]Gal) of the same binder?
Answer: Its value is 0.399.

Question: And the “glycan array binding signal (z-score)” value [12]?
Answer: The value was -0.646.

Question: And the “glycan array binding signal (z-score)” value [13]?
Answer: The value was -0.596.

Question: What about the “glycan array binding signal (z-score)” value [14] of the same binder?
Answer: Its value is 1.07.

Question: And the “glycan array binding signal (z-score)” value [15]?
Answer: Its value is -0.056.

Question: What about the “glycan array binding signal (z-score)” value [16] of the same binder?
Answer: The value was 1.57.

Question: What about the “glycan array binding signal (z-score)” value [17] of the same binder?
Answer: The value was 1.01.

Question: What about the “glycan array binding signal (z-score)” value [18] of the same binder?
Answer: Its value is 0.025.

Question: What about the “glycan array binding signal (z-score)” value [19] of the same binder?
Answer: Its value is -0.216.

Question: What about the “glycan array binding signal (z-score)” value [20] of the same binder?
Answer: The value was -0.119.

Question: What about the “glycan array binding signal (z-score)” value [21] of the same binder?
Answer: Its value is -0.611.

Question: And the “glycan array binding signal (z-score)” value [22]?
Answer: The value was 0.263.

Question: What about the “glycan array binding signal (z-score)” value [23] of the same binder?
Answer: The value was 0.1.

Question: And the “glycan array binding signal (z-score)” value [24]?
Answer: The value was -0.265.

Question: And the “glycan array binding signal (z-score)” value [25]?
Answer: Its value is 0.078.

Question: What about the “glycan array binding signal (z-score)” value [26] of the same binder?
Answer: Its value is 0.042.

Question: What about the “glycan array binding signal (z-score)” value [27] of the same binder?
Answer: The value was -0.725.

Question: What about the “glycan array binding signal (z-score)” value [28] of the same binder?
Answer: The value was 0.357.

Question: And the “glycan array binding signal (z-score)” value [29]?
Answer: Its value is 0.217.

Question: And the “glycan array binding signal (z-score)” value [30]?
Answer: The value was 0.262.

Question: And the “glycan array binding signal (z-score)” value [31]?
Answer: The value was -0.178.

Question: And the “glycan array binding signal (z-score)” value [32]?
Answer: The value was -0.696.

Question: And the “glycan array binding signal (z-score)” value [33]?
Answer: The value was -0.553.

Question: And the “glycan array binding signal (z-score)” value [34]?
Answer: Its value is -0.159.

Question: And the “glycan array binding signal (z-score)” value [35]?
Answer: The value was -0.718.

Question: And the “glycan array binding signal (z-score)” value [36]?
Answer: The value was -0.681.
